{"source": "paper PMC4336329", "about": "(PLoS ONE, 2015)", "note": "Among all 310,000 compounds or so, about 2,200 (0.71%) showed an effect of 50% or more. Effects have a minus sign here. Some of the results follow."}
{"molecular_target": "human ether-à-go-go-related gene (hERG) potassium channel (human, UniProt Q12809)", "sequence (Q12809 whole entry, looked up)": "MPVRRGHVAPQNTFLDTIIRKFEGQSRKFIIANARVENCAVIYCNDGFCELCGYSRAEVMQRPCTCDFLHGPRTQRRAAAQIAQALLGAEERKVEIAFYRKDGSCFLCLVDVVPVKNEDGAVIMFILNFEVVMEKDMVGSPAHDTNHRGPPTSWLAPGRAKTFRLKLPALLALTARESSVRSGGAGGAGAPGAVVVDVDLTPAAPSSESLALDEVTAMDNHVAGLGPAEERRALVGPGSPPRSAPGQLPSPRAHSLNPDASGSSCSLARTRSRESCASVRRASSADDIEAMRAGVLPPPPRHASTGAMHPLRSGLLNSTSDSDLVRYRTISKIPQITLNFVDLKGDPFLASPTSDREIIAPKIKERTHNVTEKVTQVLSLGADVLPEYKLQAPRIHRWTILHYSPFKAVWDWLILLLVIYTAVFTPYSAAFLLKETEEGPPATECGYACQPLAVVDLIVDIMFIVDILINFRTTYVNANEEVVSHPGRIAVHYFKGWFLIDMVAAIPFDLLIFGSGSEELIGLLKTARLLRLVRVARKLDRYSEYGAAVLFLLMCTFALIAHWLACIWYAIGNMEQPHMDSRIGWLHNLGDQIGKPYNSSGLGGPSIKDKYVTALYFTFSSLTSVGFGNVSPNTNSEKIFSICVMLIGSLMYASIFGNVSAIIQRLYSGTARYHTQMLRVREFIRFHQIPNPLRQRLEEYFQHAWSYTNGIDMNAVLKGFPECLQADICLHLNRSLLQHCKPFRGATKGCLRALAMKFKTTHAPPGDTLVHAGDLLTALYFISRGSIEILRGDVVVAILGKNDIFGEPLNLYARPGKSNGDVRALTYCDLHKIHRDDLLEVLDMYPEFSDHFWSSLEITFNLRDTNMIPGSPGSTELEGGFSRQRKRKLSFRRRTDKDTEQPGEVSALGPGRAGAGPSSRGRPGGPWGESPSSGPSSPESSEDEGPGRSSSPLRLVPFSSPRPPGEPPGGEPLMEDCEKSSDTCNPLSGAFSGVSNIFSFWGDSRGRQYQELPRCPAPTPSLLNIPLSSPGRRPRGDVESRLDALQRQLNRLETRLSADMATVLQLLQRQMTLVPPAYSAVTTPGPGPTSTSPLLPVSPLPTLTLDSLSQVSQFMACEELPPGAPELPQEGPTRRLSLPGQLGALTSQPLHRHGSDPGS", "test": "primary screen, population patch clamp on CHO cells stably expressing hERG", "units": {"hERG current change (%, negative = inhibition) at 1uM": "%"}}
{"smiles": "Cc1cccc(N=C2CSC(=O)N2)c1", "hERG current change (%, negative = inhibition) at 1uM": 12}
{"smiles": "COc1cccc(/C=N/NC(=S)Nc2cccnc2)c1", "hERG current change (%, negative = inhibition) at 1uM": 10.7}
{"smiles": "CCOC(=O)c1c(C)[nH]c(C)c1C(=O)CSc1nc(N)cc(N)n1", "hERG current change (%, negative = inhibition) at 1uM": 14.3}
{"smiles": "COc1ccc(S(=O)(=O)C(C#N)c2nc3ccccc3nc2N2CCCCC2)cc1", "note": "(centres unmarked)", "hERG current change (%, negative = inhibition) at 1uM": -0.113}
{"smiles": "CC(=O)/C(=C/N(C)C)C(=O)Nc1ccc(Cl)cc1Cl", "hERG current change (%, negative = inhibition) at 1uM": 13}
{"smiles": "COc1ccc(OCCCn2cc(/C=C3/C(=N)N4C=C(C)SC4=NC3=O)c3ccccc32)cc1", "hERG current change (%, negative = inhibition) at 1uM": 12.4}
{"smiles": "COc1ccccc1C(=O)OCC(=O)NC(=O)NCc1ccccc1", "hERG current change (%, negative = inhibition) at 1uM": -3.81}
{"smiles": "CCOC(=O)N1CCN(CC(O)COc2ccc(OC)cc2C(C)(C)C)CC1.Cl", "note": "(centres unmarked)", "hERG current change (%, negative = inhibition) at 1uM": 2.16}
{"smiles": "CCOc1ccc(S(=O)(=O)NCc2ccco2)cc1", "hERG current change (%, negative = inhibition) at 1uM": 9.49}
{"smiles": "CN(Cc1ccc(F)cc1)C(=O)c1cc(COc2ccc(F)cc2F)on1", "hERG current change (%, negative = inhibition) at 1uM": 9.63}
{"smiles": "O=C(N/N=C/C=C/c1ccco1)c1ccccc1Cl", "hERG current change (%, negative = inhibition) at 1uM": -6.98}
{"smiles": "COc1ccc(C2=CSC3=NCCN23)cc1Cl", "hERG current change (%, negative = inhibition) at 1uM": 6.27}
{"smiles": "O=C(COc1ccc(Cl)cc1)NCc1nnc(SCC(=O)Nc2ccccc2)o1", "hERG current change (%, negative = inhibition) at 1uM": 1.01}
{"smiles": "Cc1c(Cl)c(-c2n[nH]c(=S)n2Cc2ccco2)nn1C", "hERG current change (%, negative = inhibition) at 1uM": 9.86}
{"smiles": "CC1=NOC(=O)/C1=C\\c1ccc2c(c1)OCO2", "hERG current change (%, negative = inhibition) at 1uM": 18.6}
{"smiles": "Cc1cccn2c(=O)c3cc(C(=O)N4CCOCC4)n(C)c3nc12", "hERG current change (%, negative = inhibition) at 1uM": 2.56}
{"smiles": "CC1CN(C(c2ccco2)c2sc3ncnn3c2O)CC(C)O1", "note": "(centres unmarked)", "hERG current change (%, negative = inhibition) at 1uM": 0.268}
{"smiles": "Cn1c(SCc2nc3ccccc3[nH]2)nnc1-c1cnccn1", "hERG current change (%, negative = inhibition) at 1uM": 17.1}
{"smiles": "O=C(COC(=O)c1ccc(F)c(S(=O)(=O)N2CCOCC2)c1)NCCc1ccccc1", "hERG current change (%, negative = inhibition) at 1uM": 11.3}
{"smiles": "COc1ccc2sc(N(CCCN(C)C)C(=O)c3nc4ccccc4s3)nc2c1.Cl", "hERG current change (%, negative = inhibition) at 1uM": 11.5}
{"smiles": "Cc1nc(N2CCN(C(=O)c3ccco3)CC2)nc2c1C(=O)CC(C)C2", "note": "(centres unmarked)", "hERG current change (%, negative = inhibition) at 1uM": 10.1}
{"smiles": "COc1ccc(S(=O)(=O)NCc2csc(C)n2)cc1OC", "hERG current change (%, negative = inhibition) at 1uM": 11.4}
{"smiles": "COCC(C)n1c(C)cc(C(=O)COC(=O)CNC(=O)c2ccccc2)c1C", "note": "(centres unmarked)", "hERG current change (%, negative = inhibition) at 1uM": 14.4}
{"smiles": "CN(C(=O)n1cnc2ccccc21)c1ccccc1", "hERG current change (%, negative = inhibition) at 1uM": 6.18}
{"smiles": "O=C(Cc1ccccc1)N/N=C/c1ccc(OCC(=O)Nc2ccccc2)cc1", "hERG current change (%, negative = inhibition) at 1uM": 9.76}
{"smiles": "Cc1cc(C(=O)N2CCCC(N3CCN(c4cccc(Cl)c4)CC3)C2)n(C)n1", "note": "(centres unmarked)", "hERG current change (%, negative = inhibition) at 1uM": -1.81}
{"smiles": "COc1cc(/C=C2\\C(=O)NC(=O)N(c3ccccc3)C2=O)cc(OC)c1OC", "hERG current change (%, negative = inhibition) at 1uM": 7.02}
{"smiles": "COCCNC(=O)CCc1ccc(S(=O)(=O)Nc2ccc(C)cc2)cc1", "hERG current change (%, negative = inhibition) at 1uM": -6.4}
{"smiles": "COc1cccc(-c2nc(CC(=O)O)cs2)c1OC", "hERG current change (%, negative = inhibition) at 1uM": 18.3}
{"smiles": "O=C(O)C1C2C=CC(O2)C1C(=O)NCc1ccccc1Br", "note": "(centres unmarked)", "hERG current change (%, negative = inhibition) at 1uM": 13.9}
{"smiles": "COC(=O)c1ccc(CNC(=O)COC(=O)CCN2C(=O)C3CC=CCC3C2=O)cc1", "note": "(centres unmarked)", "hERG current change (%, negative = inhibition) at 1uM": 6.86}
{"smiles": "COc1ccc(Cl)c2c1[nH]c1nc(SCc3cccnc3)nnc12", "hERG current change (%, negative = inhibition) at 1uM": 11.4}
{"smiles": "CCCCn1c(=O)[nH]c(=O)c2c1nc(-c1ccc(OCC)cc1)n2CC", "hERG current change (%, negative = inhibition) at 1uM": 14.9}
{"smiles": "CCCCc1cc(=O)oc2cc(OCC(=O)NCc3ccccn3)ccc12", "hERG current change (%, negative = inhibition) at 1uM": -2.44}
{"smiles": "COc1cc(C2C(C(=O)c3ccco3)=C(O)C(=O)N2c2cc(C)on2)cc(Br)c1O", "note": "(centres unmarked)", "hERG current change (%, negative = inhibition) at 1uM": 9.94}
{"smiles": "Cc1cc(OCc2ccc(F)cc2)nc(-c2ccccc2O)n1", "hERG current change (%, negative = inhibition) at 1uM": 11.2}
{"smiles": "COc1cccc(-c2ccc(NC(=O)C3CCCN(Cc4cnn(C(C)C)c4)C3)cc2)c1", "note": "(centres unmarked)", "hERG current change (%, negative = inhibition) at 1uM": -1.47}
{"smiles": "Nc1ncc(CCN2CCOCC2)c(-c2ccc(F)cc2)n1", "hERG current change (%, negative = inhibition) at 1uM": 0.746}
{"smiles": "COC(=O)c1cc(-c2cccc(OC)c2)on1", "hERG current change (%, negative = inhibition) at 1uM": 8.44}
{"smiles": "CCCc1cc(=O)[nH]c(SCc2cc(=O)oc3cc(C)c(C(C)C)cc23)n1", "hERG current change (%, negative = inhibition) at 1uM": 19.6}
{"smiles": "C[C@@]12CCC=C[C@H]1[C@H](c1ccc3ccccc3c1)N(Cc1ccccc1)C2=O", "hERG current change (%, negative = inhibition) at 1uM": 9.47}
{"smiles": "CCn1nc(C(=O)OCC(=O)N2c3ccccc3CC2C)c2ccccc2c1=O", "note": "(centres unmarked)", "hERG current change (%, negative = inhibition) at 1uM": 2.82}
{"smiles": "CCOC(=O)C(=CNc1cccnc1Oc1ccc(C)c2c1CCC2)C(=O)OCC", "hERG current change (%, negative = inhibition) at 1uM": -0.256}
{"smiles": "COc1ccc(S(=O)(=O)N2CCN(c3ncccn3)CC2)cc1OC", "hERG current change (%, negative = inhibition) at 1uM": 6.04}
